Measurements from article PMC6919601, “Identification of Plasmodium dipeptidyl aminopeptidase allosteric inhibitors by high throughput screening” (PLoS ONE, 2019).
About 230 (0.21%) of roughly 110,000 compounds showed an effect of 50% or more. This is one part of the list.

biological target: DPAP1 (Plasmodium falciparum, UniProt Q8IIJ9); experiment: primary screen, percent inhibition; read by cleavage of a fluorogenic dipeptide substrate; higher = more effect of the substance; design: species or system P. falciparum D10 trophozoite lysates; single well
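Note: 30 min substrate incubation versus DMSO and 10 µM JCP410 controls.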

DPAP1, sequence (Q8IIJ9 whole entry, looked up): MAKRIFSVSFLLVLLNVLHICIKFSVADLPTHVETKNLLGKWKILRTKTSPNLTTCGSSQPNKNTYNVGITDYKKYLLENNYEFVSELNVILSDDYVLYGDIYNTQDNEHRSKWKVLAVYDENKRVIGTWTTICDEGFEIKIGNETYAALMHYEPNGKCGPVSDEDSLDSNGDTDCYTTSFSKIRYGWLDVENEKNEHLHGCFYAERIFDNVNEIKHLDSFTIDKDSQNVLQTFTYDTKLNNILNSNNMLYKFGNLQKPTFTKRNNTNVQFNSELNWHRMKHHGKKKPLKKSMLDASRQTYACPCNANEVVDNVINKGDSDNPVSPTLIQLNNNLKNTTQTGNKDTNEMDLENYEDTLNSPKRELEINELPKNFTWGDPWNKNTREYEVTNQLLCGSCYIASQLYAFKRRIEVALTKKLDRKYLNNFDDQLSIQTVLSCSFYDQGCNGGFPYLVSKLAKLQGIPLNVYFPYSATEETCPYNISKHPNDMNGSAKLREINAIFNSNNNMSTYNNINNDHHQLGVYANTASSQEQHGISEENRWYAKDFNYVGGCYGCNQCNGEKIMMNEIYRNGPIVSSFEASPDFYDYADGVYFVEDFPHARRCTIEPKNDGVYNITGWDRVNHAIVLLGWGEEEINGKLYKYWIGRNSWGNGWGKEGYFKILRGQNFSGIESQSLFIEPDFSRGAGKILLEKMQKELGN

| Compound | % Inhibition @ 10 uM [%] |
| --- | --- |
| Cc1ccc(S(=O)(=O)NCC2CCC(C(=O)NCCC(C)C)CC2)cc1 (centres unmarked) | -4.53 |
| CCCCOc1ccc(-c2nnn(CC(=O)O)n2)cc1OCC | 4.57 |
| COCCn1c(COc2ccc(C)cc2)nc2ccccc21 | 2.01 |
| CCCN1CCC(NCC2CCCCC2)CC1 | 6.68 |
| CC(=O)CC(=O)N1CCN(c2ccc(F)cc2)CC1 | -1.98 |
| COc1cc(CN2CCCC(C)C2)cc(OC)c1 (centres unmarked) | -5.42 |
| c1ccc(OCc2nc3ccccc3n2Cc2ccccn2)cc1 | -1.72 |
| O=S(=O)(c1ccccc1)N1CCCC(c2nc(O)c3nnn(Cc4ccccc4F)c3n2)C1 (centres unmarked) | 4.3 |
| Cn1c(=O)c2c(nc(CN3CCOCC3)n2CCc2ccccc2)n(C)c1=O | -7.05 |
| CC1CCN(C(=O)Cn2cc(C(=O)c3ccccc3)c3ccccc32)CC1 | 1.62 |
| COC(=O)c1sccc1NC(=O)COCc1cc(-c2cccs2)on1 | -3.53 |
| CN1C2=C(C(=O)CCC2)C(c2cc(Cl)ccc2OCC(=O)Nc2ccccc2)C2=C1CCCC2=O | -1.52 |
| Cc1ccccc1NC(=O)CN1C(=O)S/C(=C/c2cccc(O)c2)C1=O | 3.89 |
| C/C(Cl)=C/Cn1c(SCC(C)O)nc2c1c(=O)[nH]c(=O)n2C (centres unmarked) | -1.08 |
| CCOc1ccc(-c2cc(C(=O)NCCCOC(C)C)c3ccccc3n2)cc1 | -4.06 |
| OCC1CCCCN1Cc1ccc(C(F)(F)F)cc1 (centres unmarked) | 4.22 |
| CCOC(=O)c1cc(C(=O)OCC)c2cc(Br)ccc2n1 | -2.6 |
| CCOc1cc(C/N=c2/c(-c3ccc(Cl)cc3)c(O)c2=O)cc(OCC)c1OCC | -2.74 |
| CCOC(=O)/C(C#N)=C\c1ccc(OC)c(O)c1 | 5.69 |
| c1ccc2nc3c(nc2c1)[nH]c1ccccc13 | -1.8 |
| C=CCNC(=O)C(=O)NCc1ccc(Cl)cc1Cl | 3.15 |
| COc1ccc2nc(NC(=O)Cn3ncc4c(=O)oc5ccccc5c43)sc2c1 | -8.63 |
| O=C(CC(c1ccccc1)c1ccccc1)n1nnc2ccccc21 | 1.84 |
| Cc1cc(NC(=O)Cc2nn(C)c(=O)c3ccccc23)no1 | 6.47 |
| O=C(/C(=C/c1ccc(F)cc1)n1cncn1)c1ccc(Cl)cc1Cl | -3.71 |

| Compound | % Inhibition @ 10 uM [%] |
| --- | --- |
| COc1cccc(C2c3c(oc4ccc(C)cc4c3=O)C(=O)N2c2nc(C)c(C)s2)c1 (centres unmarked) | 3.73 |
| Cc1ccc(Cl)cc1-n1ncc2c(N3CCOCC3)ncnc21 | -6.5 |
| COc1cc(NS(=O)(=O)c2ccc(NC(=O)c3ccc(Br)cc3)cc2)ncn1 | 1.96 |
| COc1cccc(-c2noc(N)c2C#N)c1 | 0.446 |
| CCOc1ccccc1N(CC(=O)NC1CCCCC1)S(=O)(=O)c1ccc(C)cc1 | -1.61 |
| COc1cc(C2C=C(c3cccc(Br)c3)Nc3ncnn32)cc(OC)c1OC (centres unmarked) | -9.28 |
| COC(=O)C1=CN(C2CC2)C=C(C(=O)OC)C1c1ccc(OC(F)(F)F)cc1 | -2.65 |
| O=C(Nc1ncccc1Cl)C1COc2ccccc2O1 (centres unmarked) | -3.71 |
| CC(=O)NS(=O)(=O)c1ccc(NC(=O)COc2ccccc2C)cc1 | 1.94 |
| Cc1nn(CC(=O)NCCCN2CC(C)CC(C)C2)c(=O)c2cccn12 (centres unmarked) | -0.0739 |
| COc1ccc(/C=C/c2nc(C#N)c(N3CCCC3)o2)cc1OC | 4.13 |
| Cn1c(=O)c(C(=O)c2ccccc2)c(O)c2ccccc21 | 2.64 |
| N=C(NOC(=O)N1CCOCC1)c1ccccn1 | 5.17 |
| CCn1c(C(=O)N2CCC(C(=O)NCCC3=CCCCC3)CC2)cc2sccc21 | 0.137 |
| CCCCN(C)C(=O)CS(=O)(=O)Cc1nc(-c2cccc(OC)c2)oc1C | 7.79 |
| CCC(Sc1nc(C)cc(C)n1)C(=O)Nc1cccc2ccccc12 (centres unmarked) | -7.57 |
| Cc1ccccc1CN(c1ccc(C(=O)Nc2ccc(F)cc2F)cc1)S(C)(=O)=O | -7.17 |
| Cc1ccc2c(c1)c1nc3ccccc3nc1n2CCCN1C(=O)c2ccccc2C1=O | 3.54 |
| Cc1cc(OCC(=O)Nc2ccc(S(=O)(=O)N3CCCCCC3)cc2)ccc1Cl | 1.08 |
| Cc1ccc(SCCC(=O)NC(C)(C)C)cc1 | 3.68 |
| OC(CNC1CCC2C1CCC1C3CCCCC3CCC12)COc1ccccc1 (centres unmarked) | -3.44 |
| Cc1cc(Br)ccc1NC(=O)CCN1C(=O)c2ccccc2S1(=O)=O | -4.65 |
| COc1ccc(C2C(C#N)=C(N)OC3=C2C(=O)CC(C)C3)cc1Br (centres unmarked) | -2 |
| COc1ccc(CC(=O)Nc2ccc(Br)c(C)c2)cc1 | -3.74 |
| CC1CCCCN1CCCNC(=O)CCc1nnc2n(Cc3ccccc3)c(=O)c3ccccc3n12 (centres unmarked) | 4.16 |

| Compound | % Inhibition @ 10 uM [%] |
| --- | --- |
| Cc1ccc(Nc2cc(=O)n(C)c(=O)n2C)cc1C | 0.392 |
| CC(C)(C)C1=NN(c2c(Cl)cc(Cl)cc2Cl)C(=O)C1 | -1.77 |
| CCc1nc(S)c2c(n1)-c1ccccc1CC21CCCCC1 | -0.807 |
| O=C(c1scc2c1CCCC2)N1CCN(c2ccc(O)cc2)CC1 | -9.6 |
| CCN(CC)CCN1C(=O)C(O)=C(C(=O)c2ccc(F)cc2)C1c1ccc(Cl)cc1 (centres unmarked) | 2.55 |
| CC(C)Cc1ccc(S(=O)(=O)N2CCN(Cc3noc(CCC(=O)N4CCCC4)n3)CC2)cc1 | 15.8 |
| CCc1cc2c(=O)n(CC(=O)Nc3ccc(OC)cc3)cnc2s1 | -7.96 |
| Cc1ccc2nc3c(cc(C(=O)NC4CCCCC4)c(=N)n3CCN3CCOCC3)c(=O)n2c1 | -1.47 |
| O=C(NCCc1ccccn1)/C(=C/c1ccco1)NC(=O)c1ccccc1 | 2.44 |
| O=C(c1ccco1)N1CCN(C(=O)c2ccc(Br)o2)CC1 | -3.21 |
| CCOc1ccc(-c2nc(C#N)c(NCCN3CCOCC3)o2)cc1 | 0.315 |
| CC(C)(C)NC(=O)c1ccc2c(c1)C(=O)N(C1CCCCC1)C2=O | -16.1 |
| COc1ccc(CCNC(=O)CN2CC(=O)N3CCCC3C2=O)cc1OC (centres unmarked) | 1.23 |
| CCCOc1ccc(/C=c2\sc3nc(-c4ccc(F)cc4)nn3c2=O)cc1 | 0.561 |
| CC(/N=C/c1nc2ccccc2n1C)C12CC3CC(CC(C3)C1)C2 (centres unmarked) | 7.24 |
| Cc1ccc(C(=O)N/C(=C/c2ccc(Cl)cc2)C(=O)NCCC(=O)O)cc1 | -7.15 |
| Cc1cccc(NC(=O)C2CCCN2C(=O)OCc2ccccc2)n1 (centres unmarked) | -2.39 |
| Cc1nn(C(C)C(=O)N2CCC3(CC2)OCCO3)c(=O)c2c1sc1ccccc12 (centres unmarked) | 0.544 |
| COc1ccc(CN2CCCCCC2)c(C)c1C | -0.127 |
| CCOc1ccc(NC(=O)CN(c2ccc(Br)cc2)S(C)(=O)=O)cc1 | 2.02 |
| C=CCc1cccc2cc(C(=O)N3CCN(C(=O)c4ccccc4)CC3)c(=O)oc12 | 0.484 |
| CCOC(=O)N1CCN(C(=O)N[C@@H](CSCc2ccccc2)C(=O)NCC#N)CC1 | 3.1 |
| Cc1ccnc(NS(=O)(=O)c2ccc(NC(=O)c3ccc(Br)o3)cc2)n1 | 0.331 |
| COc1ccc(CCCC(=O)O)c(C)c1 | -3.27 |
| CCOCCCNC(=O)c1[nH]c2cc(OC)ccc2c1Sc1ccc(Cl)cc1 | -3.6 |

| Compound | % Inhibition @ 10 uM [%] |
| --- | --- |
| COC(=O)CC1(c2ccccc2)C(=O)c2ccccc2C1=O | -2.42 |
| CCOC(=O)N(C)c1c(N)n(Cc2ccccc2)c(=O)[nH]c1=O | -5.13 |
| CCOc1ccc(C(=O)N2CCN(Cc3ccccc3)CC2)cc1 | 2.93 |
| O=C(Nc1cccc(C(F)(F)F)c1)C(=O)NC1CCCCC1 | -4.01 |
| CCc1ccc(C2c3c(oc4cc(C)c(C)cc4c3=O)C(=O)N2CCCN(C)C)cc1 (centres unmarked) | 2.31 |
| COc1cc(C2CC(=O)N3CN(C4CCCCC4)CSC3=C2C#N)cc(OC)c1OC (centres unmarked) | 2.14 |
| CC(=O)N1N=C2c3ccccc3OCC2C1c1ccccc1 (centres unmarked) | 1.92 |
| Cc1nnc(C)n1/N=C/c1c(O)ccc2ccccc12 | 7.75 |
| N=c1c2c3c(sc2ncn1Cc1ccccc1)CCCC3 | -3.4 |
| O=C1NC(=O)N(Cc2ccccc2)C(=O)/C1=C/c1cn(Cc2ccccc2)c2ccccc12 | 5.98 |
| Cc1ccc2nc(-c3ccc(NC(=O)c4ccccc4C(=O)O)cc3)sc2c1 | 11.5 |
| N#Cc1c(O)nc2c(c1-c1ccncc1)CCc1ccccc1-2 | -2.83 |
| O=C(NCCC1=CCCCC1)C1CCC(CNc2c(N3CCCC3)c(=O)c2=O)CC1 (centres unmarked) | -0.447 |
| CC(=O)OCC12COC(C)C(C(C)=CC1C)C2C (centres unmarked) | 1.66 |
| O=C(O)c1[nH]c2ccccc2c1CC(=O)N1CCC(Cc2ccccc2)CC1 | 13.5 |
| O=C(c1ccc2nc(/C=C(\O)c3ccc(Cl)cc3)c(O)nc2c1)N1CCOCC1 | -9.95 |
| CCOCCCNC(=O)/C(C#N)=C/c1c(Oc2ccc(C(C)(C)C)cc2)nc2ccccn2c1=O | 7.65 |
| O=C(COc1ccccc1)Nc1cnn(Cc2c(Cl)cccc2Cl)c1 | 10.6 |
| Cc1cccc(OCC(=O)Nc2sc(Cc3ccccc3)c(C)c2C(N)=O)c1 | -3.43 |
| CC(C)(C)c1cc(C=C2C(=O)NC(=O)NC2=O)cc(C(C)(C)C)c1O | 3.47 |
| Cc1cccc2cc(C=O)c(SCC(=O)O)nc12 | -0.703 |
| CCC1=C([N+](=O)[O-])C(c2ccc3c(c2)OCO3)NC(=O)N1 (centres unmarked) | 6.61 |
| N#C[C@H](CCCCNC(=O)OCc1ccccc1)NC(=O)[C@H](CC1CCCCC1)NC(=O)OCc1ccccc1 | -8.26 |
